Measured values: PubChem BioAssay AID1508624 (National Center for Advancing Translational Sciences (NCATS), 2021)
Screen size: about 48,000 compounds; about 120 (0.25%) were called active. Roughly 4% stayed inconclusive and do not appear here. The call rests on the fitted dose curve; in most records, active means well fitted activation curve with a large enough effect; inconclusive means small, poorly fitted or top-dose-only effect, or another doubt; inactive means no such curve, though single readings can be large or run the other way. The list shows a part of the results.

Assay: Primary qHTS for Identification of Small Molecule Activators of Huntingtin-Antisense Promoter Activity; further: nearly all actives have a fitted effect of over 55% in size
Conditions: HEK293 HTT-AS promoter firefly luciferase reporter, 24 h; series mostly up to 57.5 µM; activity change, positive = activation: at the top concentration
Outline: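 HEK293 Fluc reporter, 2,500 cells/well, 24 h pre-culture; cpds up to 57.5 uM final, 24 h 37 degrees C; Dual-Glo, 10 min RT; normalized vehicle = 0%, zero RLU = -100%.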

Activity change, positive = activation, inactive:
CCCOc1ccc(CNC(=O)C(C)n2nc(C)n3c(cc4occc43)c2=O)cc1 (stereo not drawn) -13.4%
COc1ccc(Cl)cc1NC(=O)CSc1nnc(C)n2c1cc1sccc12 -1.54%
CC1CCN(C(=O)c2ccccc2NC(=O)c2nsc3ccccc23)CC1 -6.99%
CCc1cccc(NC(=O)C2CCCN2S(=O)(=O)c2ccc3c(c2)n(C)c(=O)c(=O)n3C)c1 (stereo not drawn) 16.7%
COc1ccc(-n2c(SCC(=O)Nc3cc(C)cc(C)c3)nc3c(oc4ccccc43)c2=O)cc1 -1.79%
CCOc1ccc(-c2cc(NC(=O)c3c(F)cccc3F)c(C(=O)OC)s2)cc1 -8.17%
COc1ccccc1N1CCN(C(=O)c2nc(-c3ccc(C)cc3)n3c2CCCCC3)CC1 -35.3%
COc1ccc(NC(=O)c2cc(S(=O)(=O)N3CCCCC3)c[nH]2)cc1Cl -24.5%
Cc1ccc(Cl)cc1NC(=O)c1cnn2c(C(F)F)cc(-c3ccccc3)nc12 -3.15%
COC(=O)c1c(NC(=O)C(C)Oc2ccc(Cl)cc2Cl)sc2c1CCCC2 (stereo not drawn) -5.81% [at 11.5 µM, percent change from vehicle, -100% = no light]
Cc1cc(C)c(/C=C/c2onc(C)c2S(=O)(=O)N2CCC(C(=O)NCC(C)c3ccccc3)CC2)c(C)c1 (stereo not drawn) -18%
Cc1cc(NC(=O)CC(C)C)cc(-c2nc3ncccc3o2)c1O -7.06%
CC(C)[N+](C)(CCOC(=O)C1c2ccccc2Oc2ccccc21)C(C)C -10.3%
CCn1cc(C(=O)NCCCN2CCC(C)CC2)c(=O)c2cc(S(=O)(=O)N(C)C3CCCCC3)ccc21 -12.6%
COc1ccc(C(=O)c2oc3ccccc3c2NC(=O)COc2cccc(C)c2)cc1 -5.78%
CN1CCC[C@@H]1Cc1c[nH]c2ccc(CCS(=O)(=O)c3ccccc3)cc12 -0.68%
Cc1nn(C)c2c1c(-c1ccccc1)cc(=O)n2C(C)C(=O)NCCc1ccc(Cl)cc1 (stereo not drawn) -20.8%
COc1ccc(-c2ccc3c(N)c(C(=O)Nc4ccc(C)cc4C)sc3n2)cc1OC -37.7%
COc1ccc(S(=O)(=O)NCC(c2ccco2)N2CCN(c3ccccc3F)CC2)cc1OC (stereo not drawn) -24.2%
CC(C)c1nc2ccc(C(=O)NCc3ccc(F)cc3)cc2o1 4.37%
COc1cc(C(=S)N2CCOCC2)cc(OC)c1OC -5.22%
O=C(Cn1c(=O)n(Cc2ccc(C(=O)NCc3ccccc3Cl)cc2)c(=O)c2ccccc21)Nc1ccc(F)c(Cl)c1 -21.2%
O=C(Cn1c(-c2cccs2)cc2ccccc21)NCc1ccccc1Br -38.3%
COc1ccc(N2CC(NC(=O)COc3ccc4ccccc4c3)CC2=O)cc1 (stereo not drawn) -22%
CN(C)S(=O)(=O)c1ccc2c(c1)N(CC(=O)N1CCN(c3ccccc3F)CC1)CCS2 -18.8%
CCc1cccc(C)c1NC(=O)CN1C(=O)C2(SCC(=O)N2c2cc(C)cc(C)c2)c2ccccc21 (stereo not drawn) -22.5%
COc1cccc(C(=O)Nc2ccccc2-c2nc3ccccc3s2)c1 13.5%
Cc1cccc(CNC(=O)CN2C(=O)CCCc3ccccc32)c1 -2.25%
Cc1ccc(-c2nc(CS(=O)(=O)CC(=O)NCc3ccccc3Cl)c(C)o2)cc1 -10.2%
CC(C)Cc1ccc(CC(=O)O)cc1 -6.75%
Cc1oc(-c2cccc(Cl)c2)nc1CN1CCCC(C(=O)NCc2ccc(Cl)cc2)C1 (stereo not drawn) -22.3%
O=S(=O)(c1ccc2[nH]c3c(c2c1)CCCCC3)N1CCN(c2cccc(Cl)c2)CC1 9.73% [at 11.5 µM, percent change from vehicle, -100% = no light]
Cc1ccccc1CNC(=O)c1sc2ncnc(N(C)C3CCCCC3)c2c1C -23.6%
NC(N)=NCCC[C@H](N)C(=O)O -6.75% [at 6 µM, percent change from vehicle, -100% = no light]
CC1=C(C(=O)Nc2cccc(C(F)(F)F)c2)C2(CCCCC2)OC1=O -29.5%
COc1cc(OC)cc(C(=O)Nc2cccc(-c3cn4cccnc4n3)c2)c1 1.63%
Cc1cccc(NC(=O)c2sc(-n3nc(C)c(CCC(C)C)c3C)nc2C)c1C -2.56%
Cc1ccc(CNC(=O)CCCCn2c(=O)c3ccccc3n(Cc3ccc(C)cc3)c2=O)cc1 -12%
CCOC(=O)c1c(S(=O)(=O)N2CCC(C(=O)NCc3ccccc3OC)CC2)c(C)n(C)c1C 20.5%
Cc1cc(C)cc(OCC(=O)N(Cc2ccc(Cl)cc2)CC2CCCO2)c1 (stereo not drawn) -23.7%
CCCCSCCCNC(=O)c1cn(C)c2ccc(S(=O)(=O)N3CCCC3)cc2c1=O -15.2%
COc1ccc(-c2nc3ccc(C)cn3c2Nc2ccc3c(c2)OCO3)cc1 6.09%
Cc1ccc(-n2nc(C(=O)Nc3ccc(C)c(F)c3)c(=O)n(C)c2=O)cc1 -5.19%
O=C(NC1CCCC1)c1ccc2c(=O)n(Cc3ccccc3)c(SCc3ccccc3)nc2c1 -6.39%
CC(C=CC1=C(C)CCCC1(C)C)=CC=CC(C)=CC(=O)Nc1ccc(O)cc1 -44.9% [at 116 µM, percent change from vehicle, -100% = no light]
Cc1ccc(Nc2nc(Nc3ccc(C)c(C)c3)nc(N3CCOCC3)n2)cc1C -30.8%
COc1ccc(N2CCN(CCCNC(=O)c3cc(Nc4ccccc4OC)nc4ccccc34)CC2)cc1 -39.4%
Cc1ccc(-n2nnnc2CNC(=O)c2ccccc2)cc1C -4.55%
COc1cc(C(=O)N2CCN(c3ccc(Nc4ccccc4)nn3)CC2)cc(OC)c1OC 10.2%
CC1CCCCN1S(=O)(=O)c1cc2c3c(c1)CC(=O)N3CCC2 (stereo not drawn) 3.21%
COc1ccc(NC(=O)Nc2c[nH]c(=O)[nH]c2=O)c(OC)c1 -3.62%
CCc1ccc(NC(=O)C2=CC(c3ccc4c(c3)OCO4)=NS(=O)(=O)N2C)cc1 -19.9%
Cc1cccc(-n2c(C)nc3cc(C(=O)NC4CCCCCC4)ccc32)c1 0.83%
COc1ccccc1CNC(=O)CSc1ncc2c(n1)-c1cc(Cl)ccc1N(Cc1ccccc1)S2(=O)=O -6.93%
Cc1c(C(=O)N(Cc2ccc(Cl)cc2)CC2CCCO2)oc2ccc(F)cc12 (stereo not drawn) -18.7%
CCOc1ccc(-c2nc(SCC(=O)NCCCOC)c(-c3ccccc3)[nH]2)cc1 26.7%
CCn1c(CN2CCOCC2)nc2cc(NC(=O)c3ccc([N+](=O)[O-])cc3)ccc21 -39.3%
COc1ccccc1Oc1c(NS(=O)(=O)c2ccc(C(C)(C)C)cc2)nc(-c2ncccn2)nc1OCCO -19.4%
CSc1ccc(CC2C(=O)Nc3ccccc32)cc1 (stereo not drawn) -9.61%
O=C(Cc1ccccc1F)N1CCC(c2nc3c(nnn3Cc3ccc(F)cc3)c(=O)[nH]2)CC1 -27.2%
O=C(CS(=O)(=O)c1cccc2nsnc12)Nc1cc(F)ccc1F -7.03%
CCOC(=O)C1CCN(c2c(C(=O)c3ccc(C)cc3)cnc3ccc(F)cc23)CC1 -7.87%
O=c1c2cc3c(nc2ncn1Cc1ccc(Cl)cc1)CCCC3 0.73%
COc1ccc(NC(=O)CN2C(=O)c3ccccc3Sc3ccc(C(=O)N4CCOCC4)cc32)c(OC)c1 -19%
COc1cc(C(=O)OCc2cc(=O)n3nc(C(C)C)sc3n2)cc(OC)c1OC -5.39%
COc1cc(NC(=O)c2cccc(F)c2)ccc1NC(=O)c1cc2ccccc2o1 -10.6%
CCOc1ccccc1NC(=O)CN1CCCN(Cc2cccc(Cl)c2)S1(=O)=O -28.4%
O=C(Nc1ccc(Oc2ccnc3[nH]ccc23)c(F)c1)c1cccn(-c2ccc(F)cc2)c1=O 9.25%
Cc1nc2ncnn2c(C)c1CCC(=O)N1CCN(c2cccc(Cl)c2)CC1 -10.6%
CCOC(=O)c1cccc(NS(=O)(=O)c2cc3[nH]c(=O)c(=O)[nH]c3cc2C)c1 0.323%
CC1CCC2(CC1)N=C(c1ccccc1)C(=O)N2CC(=O)Nc1ccc(F)c(Cl)c1 (stereo not drawn) -54.2%
CCc1ccc(NC(=O)c2nnn(Cc3cccc(C(F)(F)F)c3)c2N)cc1 6.64%
COc1cccc(CNC(=O)COCc2cc(-c3ccc4c(c3)OCO4)on2)c1 -9.57%
Cc1cc(C)cc(-n2ccnc2SCC(=O)Nc2ccc3c(c2)OCO3)c1 -37.9%
Cn1cc(-c2cc3n(n2)CCC(=O)N3CCCC(=O)Nc2ccc(F)cc2F)c2ccccc21 -18.7%
CC(=O)N(Cc1cccnc1)c1nc2c(C)cccc2s1 -8.69%
COc1ccc(S(=O)(=O)NCc2ccc3c(c2)CCN3C(=O)c2ccc(C)cc2)cc1Cl -47%
CCOC(=O)C1CCN(C(=O)Cn2nc(C)n3c(cc4cc(C)ccc43)c2=O)CC1 -13.6%
COc1ccc(CCn2c(=O)c3cccnc3n(CC(=O)Nc3cccc(C)c3)c2=O)cc1OC 1.25%
Cc1cc2nc(-c3ccc(Br)cc3)cc(C(F)(F)F)n2n1 -0.106%
CCc1ccc(-c2cn3c(n2)sc2cc(C(=O)NCC(C)c4ccccc4)ccc23)cc1 (stereo not drawn) 9.26%
Cc1nc2c(C(=O)NCCc3ccc(Cl)cc3)c[nH]n2c(=O)c1Cc1ccccc1F -17.4%
CCc1ccc(N2CCn3c2nc2c3c(=O)n(Cc3c(F)cccc3Cl)c(=O)n2C)cc1 -7.42%
Cc1ccc2nc(NS(=O)(=O)c3ccc(Cl)cc3)c(Nc3ccc(C(=O)O)cc3)nc2c1 -0.0763%
Cc1nnc2c(N3CCN(c4ccccc4)CC3)nc3ccc(C(=O)c4ccccc4)cc3n12 -1.16%
N#C/C(=C\c1ccccc1)C(=O)Nc1sc2c(c1C(N)=O)CCC2 -13.7%
Cn1cnc(S(=O)(=O)N2CCC(C(=O)N3CCN(c4ccc(Cl)cc4)CC3)CC2)c1 -14.3%
CCc1ccccc1NC(=O)C1COc2ccccc2C1 (stereo not drawn) 16.2%
N[C@H](C(=O)O)[C@@H](O)c1ccc(O)c(O)c1 -1.79%
COc1cccc(C2C(C(=O)Nc3ccccc3)=C(C)Nc3nnnn32)c1OC (stereo not drawn) -9.43%
CCc1ccc(Sc2cc(C(=O)NCCCOC(C)C)c3ccccc3n2)cc1 -34.2%
Cc1cc(C)cc(OCC(=O)Nc2ccc(Cl)c(-c3nc4ncccc4o3)c2)c1 -30.3%
COc1cc2c(Oc3ccc(NC(=O)C4(C(=O)Nc5ccc(F)cc5)CC4)cc3F)ccnc2cc1OCCCN1CCOCC1 -40.9%
